Measured values published in PubChem BioAssay AID995 (National Center for Advancing Translational Sciences (NCATS), 2007).
The whole screen tested about 72,000 compounds, of which about 710 (0.99%) were called active. The inconclusive results got no clear call from the source; some entries with a clear call stand among them for comparison. Calls come from the whole dose curve; as a rule, active = well fitted inhibition curve with a large enough effect; inconclusive = small, poorly fitted or top-dose-only effect; inactive = no such curve, though single readings can be large or run the other way. Potencies of inconclusive entries are doubtful fits and often do not repeat.

assay: qHTS Assay for Inhibitors of the ERK Signaling Pathway using a Homogeneous Screening Assay; conditions: HEK293-V1b, vasopressin-stimulated pERK AlphaScreen; activity, negative = inhibition: at 57.5 µM (top of the series) unless noted; note: nearly all actives have a fitted effect of over 55% in size
In short: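 HEK293 cells stably expressing V1b receptor, preincubated 30 min at 37 °C with compound, then stimulated 5 min with 25 nM vasopressin. Phospho-ERK by AlphaScreen SureFire after 5 h RT; normalized to DMSO and vasopressin; AC50 by Hill fit.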
% is set by controls: 0 for no effect and ±100 for the full control effect; potency is the fitted concentration of half-maximal effect; tags give direction and shape of the fitted curve.

Potency, active:
c1ccc(-c2cnc(CSc3ncnc4sccc34)o2)cc1 31.6 µM

Potency, inconclusive:
Fc1ccc(C(c2ccc(F)cc2)N2CCN(C/C=C\c3ccccc3)CC2)cc1 12.6 µM [inhibitor, partial curve], COc1ccc(NC(=O)CN(c2cc(C)cc(C)c2)S(=O)(=O)c2c(C)noc2C)cc1 25.1 µM [inhibitor, single point], CCOc1ccc(NC(=O)CCN2CCN(c3ccccc3OC)CC2)cc1 0.316 µM [inhibitor, full curve, poor fit], COC(=O)C1=C(N)Oc2cc(C)n(Cc3cccnc3)c(=O)c2C1c1cc(OC)ccc1OC (centres undefined) 31.6 µM [inhibitor, partial curve], CS(=O)(=O)c1sc2nc(-c3cccs3)cc(-c3ccccc3)c2c1N 0.794 µM [inhibitor, full curve, poor fit], O=C(CSc1nc2ccccc2[nH]1)Nc1cc(C(F)(F)F)ccc1N1CCOCC1 31.6 µM [inhibitor, single point], O=C(Oc1ccc2c3c(c(=O)oc2c1)CCCC3)c1ccco1 15.8 µM [inhibitor, partial curve], CC1CCCc2sc3nc(NCc4ccco4)n4ncnc4c3c21 (centres undefined) 20 µM [inhibitor, partial curve], CN(C)c1ccc(N=Cc2ccco2)cc1 25.1 µM [inhibitor, partial curve, poor fit], O=C(NC1CCCC1)C(c1cccs1)N(C(=O)c1ccco1)c1ccc2c(c1)OCCO2 (centres undefined) 10 µM [inhibitor, partial curve], Cc1ccc(C)c(Cn2c(=O)n(CCC(=O)NCc3ccco3)c(=O)c3ccccc32)c1 0.01 µM [inhibitor, full curve, poor fit], O=C(Nc1ccc2nn(-c3ccccc3)nc2c1)c1cccs1 0.631 µM [inhibitor, full curve, poor fit], COc1cccc(/C=N/n2c(C)nc3ccccc32)c1OC 12.6 µM [inhibitor, partial curve], Cc1csc(-c2nc3ccccc3n2C)n1 12.6 µM [inhibitor, full curve, poor fit], O=S(=O)(c1ccc2nc(-c3ccco3)c(-c3ccco3)nc2c1)N1CCOCC1 39.8 µM [inhibitor, single point], OCc1cc(C(O)CNCCCCCCOCCCCc2ccccc2)ccc1O (centres undefined) 15.8 µM [inhibitor, single point], CCOC(=O)c1sc(NCC2CCCO2)nc1C (centres undefined) 7.94 µM [inhibitor, full curve], CCOc1ccc(N2CC(O)Cn3c2nc2c3c(=O)n(CCCc3ccccc3)c(=O)n2C)cc1 (centres undefined) 10 µM [inhibitor, partial curve], Cn1c(Cc2ccccc2)nnc1SCC(=O)N1CCN(c2ccccc2)CC1 39.8 µM [inhibitor, single point], c1ccc(-c2oc3ncnc(NCCCN4CCOCC4)c3c2-c2ccccc2)cc1 25.1 µM [inhibitor, single point], CCS(=O)(=O)N1CCN(c2cccc(C)c2C)CC1 25.1 µM [inhibitor, single point], Cc1ccccc1-c1cc(NCc2ccccc2)ncn1 12.6 µM [inhibitor, partial curve], CCCn1c(-c2ccc(F)cc2)nc2c(N3CCN(CCn4ccnc4)CC3)nc(C)nc21 1 µM [inhibitor, full curve, poor fit], CS(=O)(=O)Nc1cccc(-c2ccc3ncnc(NCc4cccnc4)c3c2)c1 20 µM [inhibitor, single point], C=CCn1c(NCCc2ccccc2)nc2c1c(=O)n(C)c(=O)n2C 39.8 µM [inhibitor, single point], COc1cc2cc3c4c(cc(OC)c(OC)c4c2cc1OC)CCN3C 25.1 µM [inhibitor, partial curve], COc1ccc(C(=O)CSc2nnc(CNc3nc(-c4ccccc4)cs3)n2C)cc1 3.16 µM [inhibitor, full curve, poor fit], COCCn1c(=O)c(CCc2ccccc2)nc2cncnc21 0.794 µM [inhibitor, full curve, poor fit], COc1cccc2cc(-c3csc(CCn4nc(C)cc4C)n3)c(=O)oc12 31.6 µM [inhibitor, single point], COc1ccc(-c2nc3cnc(N4CCOCC4)nc3n(C[C@H]3CCCO3)c2=O)cc1 39.8 µM [inhibitor, single point], Cc1ccc(Oc2ccc(NC(=O)c3ccco3)cc2)cc1 25.1 µM [inhibitor, single point], Cc1ccccc1-n1c(SCC(=O)N2CCN(c3ccccc3)CC2)nnc1-c1ccncc1 2.51 µM [inhibitor, partial curve], CC1CN(CC(O)COc2ccc(C(=O)c3ccccc3)cc2)CC(C)O1 (centres undefined) 25.1 µM [inhibitor, single point], COc1ccc(-c2noc(CSc3nc(N)c(-c4ccccc4)c(=O)[nH]3)n2)cc1OC 1.58 µM [inhibitor, full curve], COc1ccc2[nH]cc(CCNc3ncncc3-c3ccc(N(C)C)cc3)c2c1 20 µM [inhibitor, single point], COCCNC(=O)c1ccccc1-c1ccccc1C(=O)O 7.94 µM [inhibitor, full curve, poor fit], O=C(CCN1C(=O)COc2ccccc21)NCCN1CCN(c2ccccc2F)CC1 10 µM [inhibitor, partial curve], O=C(CSc1nc2ncc(Br)cc2[nH]1)Nc1ccc2c(c1)OCO2 25.1 µM [inhibitor, partial curve], CC(=O)COc1cc(C)cc2oc(=O)c(C)c(C)c12 0.794 µM [inhibitor, full curve], OC1CCCN(c2c3c(nc4cc(-c5cccc(Cl)c5)nn24)CCC3)C1 (centres undefined) 12.6 µM [inhibitor, partial curve], C=CCN1CN(S(=O)(=O)c2cccs2)c2nc3ccccc3nc21 15.8 µM [inhibitor, partial curve], Cc1ccc(S(=O)(=O)Nc2nc3ccccc3nc2NCc2ccco2)cc1C 12.6 µM [inhibitor, partial curve], COc1ccc(NC(=O)C2CCCN(S(=O)(=O)c3cccc4cccnc34)C2)cc1OC (centres undefined) 7.94 µM [inhibitor, full curve, poor fit], CCn1c(=O)cc(SCC(=O)NCc2ccc3c(c2)OCO3)c2ccccc21 31.6 µM [inhibitor, partial curve], Cc1cc(=O)oc2cc(OCC(=O)OCC(=O)N3CCc4ccccc43)ccc12 31.6 µM [inhibitor, single point]

Potency, inactive:
CNCC[C@H](Oc1ccccc1OC)c1ccccc1, COc1ccc(-c2cc(C(N)=O)nc(N3CCCCCC3)n2)cc1, CC(C)=CC(=O)N1CCCc2ccccc21, COc1ccc(-c2nc(C#N)c(N3CC(C)OC(C)C3)o2)cc1OC (centres undefined), COC(=O)c1ccc(C23CC2(C(NP(=O)(c2ccccc2)c2ccccc2)c2ccccc2)C3)cc1 (centres undefined), COc1cccc(-c2ccc3ncnc(NCc4cnc(C)cn4)c3c2)c1, CC(C)(C)NCC(O)COc1ccccc1C(C)(C)C (centres undefined), CCc1ccc(C(=O)COC(=O)CNC(=O)c2ccco2)cc1, OB(O)c1csc2ccccc12, COc1cc(-c2nnc3sc(Cc4ccccc4)nn23)cc(OC)c1OC, CCNc1ncc2nc(-c3cccc(C#N)c3)c(=O)n(CCC#N)c2n1, Cc1c(C(=O)NN2CCOCC2)nn(-c2ccc(Cl)cc2Cl)c1-c1ccc(I)cc1, Cc1c(C(=O)OC2CCCCC2)[nH]c2c1C(=O)CC(C)(C)C2, O=C(c1cc2c(s1)CCCC2)N1CCN(Cc2ccc3c(c2)OCO3)CC1, Cc1c(N=Cc2c(O)n(Cc3ccco3)c(=O)c3ccccc23)c(=O)n(-c2ccccc2)n1C, O=C(Nc1cccc(C(F)(F)F)c1)C1CCCN1S(=O)(=O)c1cccc2cccnc12 (centres undefined), COc1ccc(C(c2nnnn2Cc2ccc(F)cc2)N2CCN(c3ccccc3)CC2)cc1 (centres undefined), Cc1cccc(OCc2nnc(SCC(=O)N(C(C)C)C(C)C)n2Cc2ccco2)c1C

activity, negative = inhibition, inconclusive:
O=C(Nc1ccc(C(F)(F)F)cc1Cl)c1ccc(Cn2cc(Br)cn2)o1 -30.5% [inhibitor], Cc1n[nH]c(C)c1C(=O)CC1(O)C(=O)N(CCc2ccccc2)c2ccc(Cl)cc21 (centres undefined) -30.1% [inhibitor]

activity, negative = inhibition, inactive:
Nc1[nH]c(=S)[nH]c(=O)c1N=Nc1c(Br)cc(S(N)(=O)=O)cc1Br 2.77% [at 11.5 µM], c1cc(CSSCc2ccncc2)ccn1 7.82% [at 11.5 µM], CCN(CC)CC[n+]1ccc2c(C)c3[nH]c4ccc(O)cc4c3c(C)c2c1 17.8% [at 11.5 µM]
